Source: PMC5120205 (2016)

B1: IsdB NEAT2 domain (domain or fragment)
chain: not shown
B2: recombinant full-length IsdB (natural protein)
chain: not shown

Legend:
[1] = biological target: D3-01-N2 germline-reverted; assay: SPR
[2] = biological target: D4-31-N2 germline-reverted; assay: SPR
[3] = biological target: D3-02-N2 germline-reverted; assay: SPR
[4] = biological target: D3-05-N2 germline-reverted; assay: SPR
D3-03-N1 = assay: SPR; 37 °C
[5] = biological target: D3-03-N1 germline-reverted; assay: SPR
[6] = biological target: D1-10-N1 germline-reverted; assay: SPR
[7] = biological target: D3-12-N1 germline-reverted; assay: SPR
[8] = biological target: D3-24-N1 germline-reverted; assay: SPR
[9] = biological target: D2-14-N1 germline-reverted; assay: SPR
[10] = biological target: D3-23-N1 germline-reverted; assay: SPR

Row | Binder | Kd [1] | Kd [2] | Kd [3] | Kd [4] | Kd (D3-03-N1) | Kd [5] | Kd [6] | Kd [7] | Kd [8] | Kd [9] | Kd [10]
1 | B1 | 40.5 nM | 716 nM | 665 nM | 56.9 nM |  |  |  |  |  |  | 
2 | B2 |  |  |  |  | 0.686 nM | 1170 nM | 6.7 nM | 32.5 nM | 160 nM | 6.1 nM | 56.6 nM
